Measured values as given in PubChem BioAssay AID1745853 (National Center for Advancing Translational Sciences (NCATS), 2022).
The other results are listed elsewhere or left out. The main result of the screen is listed elsewhere. These columns were measured beside it and carry no call.

Key:
Test in all cases: Primary Screen for Target Class Profiling of Small Molecule Inhibitors of Methyltransferases
[1] = target: Glycine N-methyltransferase (Homo sapiens) (UniProt Q14749); conditions: purified enzyme, MTase-Glo SAH luminescence; measured here: GNMT inhibition; at 40 µM; stronger effect = lower value
Method in brief: (§1)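 Each enzyme was assayed with SAM and its substrate. SAH formation detected by MTase-Glo luminescence; single-point 40 uM screen[…].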

[2] = target: Guanidinoacetate N-methyltransferase (Homo sapiens) (UniProt Q14353); conditions: purified enzyme, MTase-Glo SAH luminescence; measured here: GAMT inhibition; at 40 µM; stronger effect = lower value
Method in brief: as §1

[3] = target: Histamine N-methyltransferase (Homo sapiens) (UniProt P50135); conditions: purified enzyme, MTase-Glo SAH luminescence; measured here: HNMT inhibition; at 40 µM; stronger effect = lower value
Method in brief: as §1

[4] = target: Nicotinamide N-methyltransferase (Homo sapiens) (UniProt P40261); conditions: purified enzyme, MTase-Glo SAH luminescence; measured here: NNMT inhibition; at 40 µM; stronger effect = lower value
Method in brief: as §1

[5] = target: Phenylethanolamine N-methyltransferase (Homo sapiens) (UniProt P11086); conditions: purified enzyme, MTase-Glo SAH luminescence; measured here: PNMT inhibition; at 40 µM; stronger effect = lower value
Method in brief: as §1
% is scaled to controls: 0 for no effect and ±100 for the full control effect.

Compound | activity change, negative = inhibition [1] | activity change, negative = inhibition [2] | activity change, negative = inhibition [3] | activity change, negative = inhibition [4] | activity change, negative = inhibition [5]
CC1(C(=O)NC2CCCCC2)Cn2nc(-c3cccs3)cc2C(=O)N1Cc1cccc(F)c1 (stereo unspecified) | -8.98% | 3.46% | -2.92% | -6.14% | -4.79%
CC(C)C[C@@H](NC(=O)[C@@H]1C[C@@H](NC(=O)c2cnccn2)CCN1C(=O)COCC(=O)O)C(N)=O | -2.12% | 1.3% | -0.606% | -0.713% | 14.3%
CCC(C)NC(=O)CCc1nnc2n(CCc3ccccc3)c(=O)c3ccccc3n12 (stereo unspecified) | 1.2% | 2.85% | 2.38% | 0.552% | -2.75%
CCCNc1nc2c(-c3cccc(F)c3)nnn2c2ccc(Cl)cc12 | -3.98% | 2.51% | 1.26% | -6.27% | -6.23%
CC(=O)NCCNc1nc2c(-c3cccc(C)c3)nnn2c2ccc(Cl)cc12 | 4.54% | 1.16% | 8.66% | 9.62% | 0.225%
O=C(Nc1ccccc1F)C1CN(C2CCCCC2)C(=O)N1 (stereo unspecified) | -3.23% | -2.8% | -0.925% | -14.4% | -6.01%
O=C(c1cn[nH]c1-c1ccc(F)cc1)N1CC2CC(C1)[C@H]1CCCC(=O)N1C2 (stereo partly specified) | -3.61% | -4.48% | -0.109% | -3.69% | -1.17%
Cc1ccc(-c2nnc3ccc(-c4ccoc4)nn23)nc1 | -38.1% | -9.22% | -5.14% | -14.7% | -13.3%
CN(C)c1nc(Cc2ccc(NC(=O)c3ccc4ccccc4c3)cc2)nc(Cl)c1CC(=O)O | -18.7% | -2.21% | 12% | -20.4% | 3.47%
Cc1ccc(Cn2c(=O)c3ccc(C(=O)NCC(C)C)cc3n3c(=O)n(Cc4ccccc4F)nc23)cc1 | 5.07% | 0.339% | 5.84% | 2.59% | 3.49%
O=C1[C@H](CC[C@H](O)c2ccc(F)cc2)[C@@H](c2ccc(O)cc2)N1c1ccc(F)cc1 | -2.2% | -8.25% | -2.34% | -44.4% | -9.69%
C/C=C/C=C/[C@@H]1O[C@](O)([C@H](CC)C(=O)NC/C=C/C=C(\C)[C@@H](OC)[C@@H](C)C2OC(/C=C/C=C/C=C(\C)C(=O)c3c(O)cc[nH]c3=O)[C@H](O)[C@@H]2O)[C@H](O)[C@H](O)C1(C)C (stereo partly specified) | 2.03% | 1.65% | 7.63% | -8.45% | -3.18%
C[C@@H]1C[C@H]2OC(=O)[C@@]3(C)CCC[C@](C)(C23)[C@@]1(O)CCC1=CC(=O)OC1O (stereo partly specified) | 1.83% | 8.62% | 7.85% | -2.77% | 7.04%
CNC(=O)c1cc[nH]c1C1CCCN(C(=O)Cc2ccsc2)C1 (stereo unspecified) | -4.61% | -10.8% | -2.32% | -2.76% | -5.47%
CC1(C(=O)NC2CCCCCC2)Cn2c(cc3occc32)C(=O)N1Cc1ccccc1 (stereo unspecified) | 3.85% | 0.576% | 8.27% | 3.82% | 4.29%
Cc1cc(-c2ncc(CC(=O)Nc3ccc(-c4cnccn4)cn3)cc2C)ccn1 | -15.4% | -8.64% | -0.696% | -33.3% | -7.53%
O=C(Nc1ccccc1C(F)(F)F)N1Cc2c(sc3c2CCCC3)-n2cccc2C1c1ccccc1 (stereo unspecified) | -4.46% | 0% | 1.17% | -7.03% | 5.29%
O=C(O)COCCN1CCN([C@H](c2ccccc2)c2ccc(Cl)cc2)CC1 | 1.98% | -6.88% | 0.94% | -27.7% | -2.78%
F[C@@H]1CN(Cc2nccs2)C[C@@H]1OCc1nc2ccccc2o1 | -4.26% | -3.28% | 0.465% | -4.91% | 5.92%
CCOCCCNC(=O)c1cc2n(n1)CC(C)(C(=O)NC1CCCCC1)N(C)C2=O (stereo unspecified) | 5.28% | 0% | 2.04% | 6.76% | 1.35%

Compound | activity change, negative = inhibition [1] | activity change, negative = inhibition [2] | activity change, negative = inhibition [3] | activity change, negative = inhibition [4] | activity change, negative = inhibition [5]
O=C(NCC(=O)N1CC[C@H](NC2CCC(O)(c3ccc(-c4ncccn4)cn3)CC2)C1)c1cccc(C(F)(F)F)c1 (stereo partly specified) | 4.38% | 5.09% | 11% | -13.9% | 1.39%
Cc1cnc(C(=O)NCCc2ccc(S(=O)(=O)NC(=O)NC3CCCCC3)cc2)cn1 | -5.72% | 2.33% | -2.7% | -8.36% | -2.92%
O=C(O)c1cccc(-c2ccc(-c3cn(C(=O)N4CCCCC4Cc4ccccc4)nn3)cc2)c1 (stereo unspecified) | -43.3% | -23.9% | -9.71% | -45.5% | -9.67%
CC1CCN(S(=O)(=O)c2ccc3c(ccn3CC(=O)NCc3ccccc3F)c2)CC1 | 5.47% | 1.47% | 2.87% | 3.85% | 2.76%
O=C(COc1ccccc1)NC1CCc2nnc(C3CC3)n2CC1 (stereo unspecified) | 0.033% | 1.04% | 1.66% | 1.44% | 0.133%
O=C(CCc1nnc2n(Cc3ccc(F)cc3)c(=O)c3ccccc3n12)N1CCN(c2ccc(Cl)cc2)CC1 | 2.89% | 2.06% | 2.51% | 2.21% | -2%
CC(C)(N)c1cc(C(=O)N[C@@H]2CCc3ccc(Oc4ccnc5c4CCC(=O)N5)cc3C2)cc(C(F)(F)F)c1 |  | 6.68% |  | -47.3% | -4.1%
COc1ccccc1CNC(=O)C1(C)Cn2c(cc3ccccc32)C(=O)N1C1CCCC1 (stereo unspecified) | 3.98% | 2.28% | 4.31% | 4.59% | 1.22%
CN(C(=O)c1cccc2ccccc12)C1CCCN(C2Cc3ccccc3C2)C1 (stereo unspecified) | -6.34% | -7.7% | -4.09% | -13.8% | -22.2%
CC(C)NC[C@H](O)COc1cccc2[nH]ccc12 | 3.63% | 14.2% | 12.1% | -0.746% | 6.43%
COc1ccccc1NC(=O)N1CC(C(=O)NCC2CC2)CC(c2ccccc2)C1 (stereo unspecified) | -4.65% | -3.93% | -2.23% | -11.6% | -11.6%
CC(C)CCn1c(=O)c2ccccc2n2c(=O)n(CC(=O)Nc3ccc4c(c3)OCCO4)nc12 | -0.164% | 1.45% | 2.91% | -5.83% | -0.956%
Cc1ccc(Cn2c(=O)c3ccccc3n3c(-c4ccc(Br)cc4)nnc23)cc1 | -0.591% | 0% | 7.6% | 7.96% | 0.817%
CN1CCC(NC(=O)c2cc(-c3c(O)cc(O)cc3Oc3ccc([N+](=O)[O-])cc3)on2)CC1 | 1.87% | 4.26% | -19.4% | -13.3% | -3.04%
CCC(C)NC(=O)c1ccc2c(=O)n(C)c3nnc(SCc4c(F)cccc4Cl)n3c2c1 (stereo unspecified) | 1.84% | 3.96% | 1.39% | 1.87% | -4.94%
COC(=O)[C@@H]1Cc2ncn(Cc3ccccc3)c2CN1C(=O)c1cccs1 | -11.7% | -17.3% | -5.93% | -21.6% | -13.2%
CCOc1ccccc1CN1C[C@@H](CO)[C@H](C2CCN(C(C)=O)CC2)C1 | 0.023% | -0.873% | -7.78% | -5.16% | 14.6%
CC1(C(=O)NCc2ccccc2)Cn2cnc(C(=O)NCc3cccnc3)c2C(=O)N1C1CC1 (stereo unspecified) | -2.98% | -1.33% | 0.61% | -2.72% | 0.055%
COC(=O)C1=CO[C@@H](O[C@@H]2O[C@H](CO[C@@H]3O[C@H](CO)[C@@H](O)[C@H](O)[C@H]3O)[C@@H](O)[C@H](O)[C@H]2O)[C@@H]2C(CO)=CC[C@H]12 | 5.82% | 4.52% | 8.22% | -7.37% | -1.99%
C=C1/C(=C\C=C2/CCC[C@@]3(C)C2CC[C@@H]3[C@H](C)/C=C\[C@@H](O)C2CC2)C[C@@H](O)C[C@@H]1O (stereo partly specified) |  | 0.074% |  | -14.5% | -1.08%

Compound | activity change, negative = inhibition [1] | activity change, negative = inhibition [2] | activity change, negative = inhibition [3] | activity change, negative = inhibition [4] | activity change, negative = inhibition [5]
NC(=O)CN1C(=O)CO[C@H]2CN(Cc3ccc(Cl)cc3)C[C@H]21 | -1.71% | -3.42% | 0.263% | -3.91% | -15.7%
COc1cc2ncnc(Oc3ccc(CC(=O)Nc4cnn(C(C)C)c4)cc3)c2cc1OC | -3.73% | 5.39% | -0.269% | -27.2% | -4.44%
CCNC(=O)N1C[C@@H](F)[C@@H](OCc2nc3ccc(F)cc3[nH]2)C1 | -1.29% | -3.84% | -1.74% | -11.3% | -7.32%
CC1(C(=O)NC2CCCCCCC2)Cn2c(cc3sccc32)C(=O)N1CCN1CCCCCC1 (stereo unspecified) | -1.36% | 4.36% | -26.4% | -9.35% | -4.44%
CC(C)NC(=O)c1ccc2c(=O)n(Cc3ccccc3)c3nnc(SCc4ccccc4F)n3c2c1 | 4.72% | 6.41% | 4.77% | 0.399% | 5.66%
CN1C(=O)c2cc(C(=O)NCc3cccc(F)c3)nn2CC1(C)C(=O)NCc1ccccc1 (stereo unspecified) | -1.61% | -1.96% | 2.02% | -6.91% | -2.51%
CCC(C)NC(=O)c1ccc2c(=O)n(CC(C)C)c3nn(CC(=O)Nc4cc(C)cc(C)c4)c(=O)n3c2c1 (stereo unspecified) | 4.84% | 0% | 7.01% | 5.08% | 5.02%
CCOC(=O)c1cc2n(n1)CC(C)(C(=O)NC1CCCCCC1)N(c1cccc(C)c1C)C2=O (stereo unspecified) | 4.28% | 3.21% | -9.24% | 1.91% | 4.7%
COC(=O)Nc1nc2ccc(C(=O)c3ccc(F)cc3)cc2[nH]1 | -1.11% | -3.29% | 3.43% | -19.7% | -5.41%
Cc1ccc2c(c1)c1c3n2CCN(C(C)c2ccccc2)C3CCC1 (stereo unspecified) | 2.92% | 1.27% | 6.44% | 4.48% | 1.23%
CC(C)Cn1c(=O)c2ccccc2n2c(CCC(=O)NC3CCCCC3)nnc12 | 6.58% | -2.34% | 8.69% | 6.41% | -3.98%
CCc1ccc(C(=O)COC(=O)C(Cc2c[nH]c3ccccc23)NC(=O)c2ccc(CC)cc2)cc1 (stereo unspecified) | 10.4% | 0% | 7.44% | 2.6% | 3.73%
COc1ncc(-c2ccc3nccc(-c4ccnnc4)c3c2)cc1NS(=O)(=O)c1ccc(F)cc1F | -30.4% | -22.1% | -15.6% | -32.5% | -25.4%
COc1cccc(CNC(=O)Cn2ccc3cc(S(=O)(=O)N4CCCC4)ccc32)c1OC | -5.7% | 2.11% | -6.89% | -8.27% | -4.25%
CCN1CCN(Cc2cc3ccc(C)cc3nc2-c2ccc(OC)c(OC)c2)CC1 | -15.3% | -10.8% | -19.9% | -25.9% | -14.3%
CC(C)CNC(=O)c1ccc2nnc(C(C)(C)C)n2c1 | -4.63% | -7.21% | -4.17% | -9.36% | -5.16%
COc1cccc(-c2[nH]cnc2-c2ccccc2)c1OCCCN(C)C | -8.92% | -8.3% | -14% | -16.7% | -2.15%
O=C(CCCc1nnc2n3nc(-c4ccccc4)nc3c3ccccc3n12)NCCCN1CCOCC1 | -8.31% | 1.94% | -7.7% | 5.77% | -8.16%
